Changes are numbered by the printed parent chain. Names and notes keep the numbering of the source. These are yes or no findings as the source states them, for the method shown. Some binding calls cover weakened binding; strength is not graded here. For some assays here: Tags and fused reporters may be left off the sequences shown. Values belong to the binder of their own block, whether it stands above or below them.
What was measured:
[1] = target: T1, Tat-SF1 UHM (residues 260-353) (human) (UniProt O43719); test: crystal structure; Tat-SF1 UHM–Hsh155 ULM complex in a 1:1.2 molar ratio, 18 mg/mL, vapor diffusion at 277 K; 2.0 Å; both purified
T1 sequence: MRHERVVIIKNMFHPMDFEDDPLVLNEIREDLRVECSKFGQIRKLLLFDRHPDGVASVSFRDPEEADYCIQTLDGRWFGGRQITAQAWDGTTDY

[2] = target: T2, Cus2 UHM (146-285) fused to the GAL4 DNA-binding domain (S. cerevisiae) (UniProt P53830); test: two-hybrid; Cus2 proteins fused to the GAL4 DNA-binding domain (pAS2) against Hsh155 fused to the GAL4 activation domain (pACT) in yeast strain y190; GAL/UAS-HIS3 reporter, growth on SCD -Leu -Trp -His with 25 mM 3-AT
T2 sequence: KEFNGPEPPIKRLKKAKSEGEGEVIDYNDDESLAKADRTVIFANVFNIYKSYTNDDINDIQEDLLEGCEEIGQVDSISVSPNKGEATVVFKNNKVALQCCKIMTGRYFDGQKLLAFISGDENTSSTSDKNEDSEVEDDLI

[3] = target: T3, Cus2, full length, fused to the GAL4 DNA-binding domain (S. cerevisiae) (UniProt P53830); test: as above
T3 sequence: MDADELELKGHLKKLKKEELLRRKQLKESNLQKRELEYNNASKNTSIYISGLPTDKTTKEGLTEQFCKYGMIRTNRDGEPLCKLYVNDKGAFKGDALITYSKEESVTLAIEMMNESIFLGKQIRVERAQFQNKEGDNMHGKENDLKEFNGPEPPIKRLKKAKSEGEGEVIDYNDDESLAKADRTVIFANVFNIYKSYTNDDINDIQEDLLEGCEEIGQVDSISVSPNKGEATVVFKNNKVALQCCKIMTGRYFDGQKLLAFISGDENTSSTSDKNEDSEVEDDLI

[4] = target: T4, Tat-SF1 (1-383) fused to the GAL4 DNA-binding domain (human) (UniProt O43719); test: two-hybrid; Tat-SF1 (1-383) fused to the GAL4 DNA-binding domain against Hsh155 fused to the GAL4 activation domain, in a strain with the CUS2 open reading frame deleted; growth on SCD -Leu -Trp -His with 25 mM 3-AT
T4 sequence: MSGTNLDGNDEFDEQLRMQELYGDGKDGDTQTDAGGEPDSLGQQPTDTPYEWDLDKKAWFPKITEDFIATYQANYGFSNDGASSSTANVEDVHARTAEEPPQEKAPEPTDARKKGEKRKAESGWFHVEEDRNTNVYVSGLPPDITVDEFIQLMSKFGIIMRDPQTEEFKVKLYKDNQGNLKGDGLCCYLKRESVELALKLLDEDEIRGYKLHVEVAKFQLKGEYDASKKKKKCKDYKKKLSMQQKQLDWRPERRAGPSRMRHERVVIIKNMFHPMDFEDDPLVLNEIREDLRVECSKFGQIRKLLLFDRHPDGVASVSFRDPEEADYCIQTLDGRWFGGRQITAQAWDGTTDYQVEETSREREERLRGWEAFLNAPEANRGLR

binding [1]: binds
Binder: KSRWDVKGYEPPDES (peptide, UniProt P49955 98-112) [Hsh155 ULM (residues 98-112) of the crystal structure]

binding [2]: binds | binding [3]: binds | binding [4]: binds
B1: Hsh155, full length, wild type, fused to the GAL4 activation domain (protein, UniProt P49955 1-971)
chain: MSHPIQFVNANNSDKSHQLGGQYSIPQDLRENLQKEAARIGENEKDVLQEKMETRTVQNREDSYHKRRFDMKFEPDSDTQTVTSSENTQDAVVPRKRKSRWDVKGYEPPDESSTAVKENSDSALVNVEGIHDLMFFKPSDHKYFADVISKKPIDELNKDEKKERTLSMLLLKIKNGNTASRRTSMRILTDKAVTFGPEMIFNRLLPILLDRSLEDQERHLMIKTIDRVLYQLGDLTKPYVHKILVVAAPLLIDEDPMVRSTGQEIITNLSTVAGLKTILTVMRPDIENEDEYVRNVTSRAAAVVAKALGVNQLLPFINAACHSRKSWKARHTGIKIVQQIGILLGIGVLNHLTGLMSCIKDCLMDDHVPVRIVTAHTLSTLAENSYPYGIEVFNVVLEPLWKGIRSHRGKVLSSFLKAVGSMIPLMDPEYAGYYTTEAMRIIRREFDSPDDEMKKTILLVLQKCSAVESITPKFLREEIAPEFFQKFWVRRVALDRPLNKVVTYTTVTLAKKLGCSYTIDKLLTPLRDEAEPFRTMAVHAVTRTVNLLGTADLDERLETRLIDALLIAFQEQTNSDSIIFKGFGAVTVSLDIRMKPFLAPIVSTILNHLKHKTPLVRQHAADLCAILIPVIKNCHEFEMLNKLNIILYESLGEVYPEVLGSIINAMYCITSVMDLDKLQPPINQILPTLTPILRNKHRKVEVNTIKFVGLIGKLAPTYAPPKEWMRICFELLELLKSTNKEIRRSANATFGFIAEAIGPHDVLVALLNNLKVQERQLRVCTAVAIGIVAKVCGPYNVLPVIMNEYTTPETNVQNGVLKAMSFMFEYIGNMSKDYIYFITPLLEDALTDRDLVHRQTASNVITHLALNCSGTGHEDAFIHLMNLLIPNIFETSPHAIMRILEGLEALSQALGPGLFMNYIWAGLFHPAKNVRKAFWRVYNNMYVMYQDAMVPFYPVTPDNNEEYIEELDLVL

binding [3]: no binding
B2: Hsh155 R100D, W101A fused to the GAL4 activation domain (natural protein, S. cerevisiae, UniProt P49955 1-971, looked up)
chain: B1 chain with R100D, W101A

Reference: article PMC6633205, “Cus2 enforces the first ATP-dependent step of splicing by binding to yeast SF3b1 through a UHM–ULM interaction” (RNA, 2019)
